Measured values published in the supplement of paper PMC3334620.
Whole data set: some 33,000 sequences, median “E-score (-0.5 to 0.5)” near -0.012, cut for the highest 2% near 0.27. This is one part of the list.

What follows are sequences tested against T1, Vhr1 (UniProt P40522) (assay: PBM E-score (8-mer binding enrichment) (E-score (-0.5 to 0.5)); higher = stronger / more preferred TF binding; most listed sequences are background and not binding sites). Conditions: protein concentration: 200 nM; construct: GST-full length.
T1 sequence: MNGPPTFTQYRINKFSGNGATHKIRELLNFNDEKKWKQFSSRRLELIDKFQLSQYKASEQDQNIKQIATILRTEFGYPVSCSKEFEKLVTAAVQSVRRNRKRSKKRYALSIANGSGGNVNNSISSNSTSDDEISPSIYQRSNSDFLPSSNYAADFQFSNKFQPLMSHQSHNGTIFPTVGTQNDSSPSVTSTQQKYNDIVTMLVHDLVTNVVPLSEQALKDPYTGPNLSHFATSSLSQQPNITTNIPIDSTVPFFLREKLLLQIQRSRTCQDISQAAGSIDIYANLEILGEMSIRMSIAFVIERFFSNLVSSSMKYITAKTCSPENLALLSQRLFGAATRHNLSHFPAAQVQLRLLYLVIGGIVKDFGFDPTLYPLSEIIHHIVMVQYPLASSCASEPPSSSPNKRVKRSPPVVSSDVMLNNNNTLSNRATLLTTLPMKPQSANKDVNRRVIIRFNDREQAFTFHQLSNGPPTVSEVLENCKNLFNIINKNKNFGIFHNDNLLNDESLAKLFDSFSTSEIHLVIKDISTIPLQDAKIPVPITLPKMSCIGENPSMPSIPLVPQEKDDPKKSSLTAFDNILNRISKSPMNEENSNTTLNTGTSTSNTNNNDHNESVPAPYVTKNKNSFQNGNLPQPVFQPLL
Method: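 Universal 'all 10-mer' protein binding microarrays (Agilent AMADID 015681) probed with GST-tagged S. cerevisiae TFs (full-length or DBD) made by in vitro transcription/translation (PURExpress), about 100-200 nM. Bound TF was detected with fluorescent anti-GST. Each ungapped 8-mer (which stands for itself and its reverse complement) is scored by the PBM enrichment score (E-score), a modified Wilcoxon-Mann-Whitney statistic from -0.5 to +0.5, computed with the Universal PBM Analysis Suite. Scale: above 0.35 generally sequence-specific binding.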

Row | Sequence | PBM E-score
1 | CGGGATAA | -0.013
2 | AGTTCAGG | -0.148
3 | CACTAGAA | -0.279
4 | CGAATTTC | -0.109
5 | CACCTCCG | 0.109
6 | ATCTAGCG | -0.116
7 | CCTTTGGC | 0.0451
8 | CGCGTATA | -0.0336
9 | CGGATTAA | 0.0419
10 | GTCCGAAC | -0.133
11 | AGGGGCAC | -0.128
12 | CACAAACG | 0.0273
13 | CCGTGGAC | -0.0394
14 | CAAATGAC | -0.0875
15 | GCGTAGTA | -0.077
16 | AATAGCAC | -0.026
17 | GCCAGGCC | -0.0963
18 | AACTCAAC | 0.109
19 | GTCATCAA | 0.196
20 | ATGGGATG | 0.0391
21 | ACCTAAGG | -0.277
22 | ATTTTCGC | 0.0111
23 | CTGGCACA | -0.0822
24 | CACGTTGA | 0.104
25 | GGTTCGGA | -0.112

Row | Sequence | PBM E-score
26 | AGCAAACG | -0.105
27 | ATGAGCGA | 0.106
28 | ATTTAACC | 0.034
29 | GTTTAGCA | -0.173
30 | TCTACAGA | 0.00648
31 | AAGCGAGA | -0.182
32 | ACCTCGGA | 0.107
33 | GCGGCACA | 0.0855
34 | GACCCGGC | 0.112
35 | AGCATCAA | 0.0321
36 | ACGTCCGG | -0.0653
37 | AGTTAGGC | -0.144
38 | AACGTCAT | 0.104
39 | GTCCAACA | 0.00179
40 | CTTATGGC | -0.172
41 | AAGACCGT | -0.235
42 | CTAGCCGA | -0.02
43 | GCGCCTCC | -0.0327
44 | TAACTCCA | -0.0608
45 | AGTCCCGA | -0.0853
46 | CTCGCTGC | 0.08
47 | GGGCTTTA | -0.295
48 | CACTTGTC | -0.0138
49 | ACGCTGAA | -0.238
50 | TACCTAAA | -0.155

Row | Sequence | PBM E-score
51 | GGGCGGAC | 0.0707
52 | CTGTGCGC | 0.0828
53 | GTTGAAAC | -0.0891
54 | TGGCACAA | -0.0601
55 | ATAACTGA | 0.111
56 | CTTCACAC | -0.063
57 | AGGTTCAA | 0.0239
58 | ATAGTAGG | 0.138
59 | TCGTGGAA | 0.211
60 | AAGAAGCC | -0.0405
61 | CGAGATTA | 0.0687
62 | GAGTAATA | 0.162
63 | ACATTACT | 0.0527
64 | CCATTAAC | 0.135
65 | AGACTCTC | 0.0937
66 | AGATGCGA | 0.0238
67 | CTCCGGGA | 0.087
68 | CCAAGAGA | -0.148
69 | AGTTGAAA | -0.138
70 | CGTTTTGA | -0.0651
71 | CCGACAAG | -0.0285
72 | ATATGTGA | 0.206
73 | CCCTCTCC | -0.179
74 | CCAGTGGA | -0.118
75 | CATCTGCG | 0.0859

Row | Sequence | PBM E-score
76 | CCTAGCTC | -0.0792
77 | TAATCGAA | -0.0316
78 | GGTTTTAA | -0.0733
79 | AGACCCTG | 0.0628
80 | AACATGCA | 0.0505
81 | CCACTGCA | 0.0851
82 | CAAGATGG | -0.0455
83 | GGCTTGAA | -0.155
84 | CCAACCCG | 0.0536
85 | TCGATAAA | -0.0638
86 | CACTTTGG | -0.00024
87 | CATCTAAG | -0.161
88 | AGACCTAC | 0.0604
89 | AGGGGTTA | -0.066
90 | GCCTTCAC | -0.0812
91 | CAAATTGG | -0.0706
92 | AAATGGGA | -0.161
93 | GCGAAAAA | -0.0346
94 | AGACGGCC | -0.064
95 | CCGGTTGC | 0.00903
96 | ACACCGTG | 0.0265
97 | AATGGCGA | -0.0361
98 | GGTGTGAA | 0.151
99 | CGTTGCAG | -0.111
100 | ACATTAGA | -0.105

Row | Sequence | PBM E-score
101 | CCTAATAG | -0.176
102 | GTGCTTTA | -0.096
103 | CACACATG | 0.245
104 | GAGAGCGA | -0.0723
105 | CCTTTGCC | -0.17
106 | AATTCGTA | -0.124
107 | AGTGGAAA | -0.12
108 | AAGCAGAC | -0.229
109 | ATCAACAC | 0.214
110 | CTTCATAC | 0.0213
111 | ACATCTAG | -0.0202
112 | TCTAGACA | 0.147
113 | CCGTGCGA | 0.181
114 | CTGAAAGA | -0.175
115 | ACCATGGC | 0.119
116 | CCATCCCG | -0.0862
117 | AAAAGATA | -0.16
118 | CTTATCCA | 0.00295
119 | AACTCCTG | 0.00206
120 | TATCTCAA | 0.147
121 | AACCGATA | 0.135
122 | GATTTGCA | -0.0259
123 | GGCAATAC | 0.0785
124 | CGAGACCG | 0.02
125 | GCCTTCGA | -0.181

Row | Sequence | PBM E-score
126 | GATGGCGC | -0.0762
127 | CGTGGATC | -0.004
128 | ATAGGCAT | 0.0131
129 | CTGTCAAA | -0.0913
130 | GTCACACA | 0.303
131 | ACTACTAT | 0.325
132 | GCGAGTCC | 0.22
133 | CTGTCGCC | 0.0514
134 | ATCGGGCC | -0.16
135 | GAGCTCTA | -0.0777
136 | CGCCTGGA | 0.0443
137 | AATCAACA | 0.303
138 | CTTGAGCC | -0.217
139 | ACGTAAGA | -0.179
140 | TAATTCAA | -0.137
141 | GACTCGAA | 0.161
142 | ACAATTCA | -0.233
143 | TCCTGTAA | -0.00405
144 | ATGTATTC | 0.00908
145 | ACACCTGC | 0.0726
146 | ACCTACTG | 0.0266
147 | CTGCGAGA | -0.0679
148 | GATCACCC | 0.0378
149 | ACTGCTGG | -0.162
150 | CGTGCACC | -0.108

Row | Sequence | PBM E-score
151 | ACGAGTAA | 0.163
152 | GCTCAGTA | -0.0102
153 | ATACAGCG | -0.0674
154 | CTTATAAC | -0.103
155 | AAAGTTTG | 0.0115
156 | CTACCCAC | 0.0974
157 | CTCGGCCA | 0.0475
158 | ACGTGCTC | 0.0758
159 | CAGAAGCA | -0.165
160 | ACGGCTCA | 0.193
161 | ATACTAAC | 0.208
162 | ACGTATCG | -0.096
163 | AGCGAGAA | -0.322
164 | TCAACAGA | 0.0252
165 | CGCAGTGC | -0.174
166 | CGGAATTC | -0.141
167 | ACCGTGCC | -0.00252
168 | CTTATTAC | -0.0243
169 | CCCGGGCG | -0.11
170 | ACGTACTG | 0.0216
171 | CACGTAGG | -0.143
172 | ATTCCCTC | 0.0523
